{"source": "PubChem BioAssay AID686978", "about": "(National Center for Advancing Translational Sciences (NCATS), 2013)", "note": "About 64,000 (15%) of roughly 420,000 compounds were called active. The inconclusive results got no clear call from the source; some entries with a clear call stand among them for comparison. Calls follow the shape of the dose curve; as a rule, active = well fitted inhibition curve with a large enough effect; inconclusive = small, poorly fitted or top-dose-only effect; inactive = flat fitted curve, though single readings scatter. No potency is given beside an inconclusive call; the fits are too rough. % is scaled to controls: 0 for no effect and ±100 for the full control effect; potency is read from the fitted curve at half-maximal effect; tags tell the direction and shape of the fitted curve."}
{"assay": "qHTS for Inhibitors of human tyrosyl-DNA phosphodiesterase 1 (TDP1): qHTS in cells in absence of CPT; also: nearly all actives have a fitted effect of over 55% in size", "details": "DT40 Tdp1-/- hTDP1 cells, no CPT, ATP luminescence, 48 h; activity change, negative = growth inhibition: at 46.2 µM (top of the series) unless noted", "procedure,_shortened": "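Chicken DT40 Tdp1-/- cells stably complemented with human TDP1 were seeded at 400 cells/well with DMSO in place of 20 nM camptothecin. After compound pinning, cells grew at least 48 hr at 37 °C; viability read by CellTiter-Glo luminescence.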"}
{"smiles": "Cc1cc(Cl)ccc1NC(=S)NCCCN1CCCC1=O", "Potency": "inactive"}
{"smiles": "CCCN1C(=O)C(O)(C2COC(C)(C)CC2=O)c2ccccc21", "note": "(stereo not given)", "Potency": "active: 13 µM"}
{"smiles": "O=S(=O)(c1ccc(S(=O)(=O)N(Cc2cccs2)CC2CCCO2)cc1)N1CCCCC1", "note": "(stereo not given)", "Potency": "inconclusive [inhibitor, single point]"}
{"smiles": "O=C1CC(c2cccc([N+](=O)[O-])c2)c2c(ccc3ccccc23)N1", "note": "(stereo not given)", "Potency": "active: 8.2 µM"}
{"smiles": "O=C(Nc1ccc2c(c1)OCCO2)c1ccco1", "Potency": "inconclusive [inhibitor, single point]"}
{"smiles": "CCOC(=O)c1c(Nc2ccc(C)cc2)nnc(-c2ccccc2)c1-c1ccccc1", "Potency": "active: 18.4 µM"}
{"smiles": "O=C(NCC1CCCN(C(=O)c2cc(Cl)ccc2F)C1)c1ccc(F)cc1", "note": "(stereo not given)", "Potency": "inconclusive [inhibitor, partial curve]"}
{"smiles": "COC(=O)c1ccccc1Oc1ccc(NC(=O)C(C)(C)CCl)cc1", "Potency": "inconclusive [inhibitor, single point]"}
{"smiles": "Cc1c(C(=O)N2CCN(C3CCS(=O)(=O)C3)CC2)oc2ccc(Cl)cc12", "note": "(stereo not given)", "Potency": "inactive"}
{"smiles": "C=CCNc1nc(N2CCCCC2)c(C#N)c2c1CN(Cc1ccccc1)CC2", "Potency": "active: 23.1 µM"}
{"smiles": "COC(=O)c1ccc(CN2CCCC(C(=O)Nc3cccc(-n4cccn4)c3)C2)cc1", "note": "(stereo not given)", "Potency": "inconclusive [inhibitor, single point]"}
{"smiles": "Cc1ccc(NC(=O)N2CCC(c3nc4c(nnn4Cc4cccc(Cl)c4)c(=O)[nH]3)CC2)cc1", "Potency": "inconclusive [inhibitor, single point]"}
{"smiles": "COc1cccc(N(C(=O)CNC(=O)c2ccco2)C(C(=O)NC2CCCCC2)c2ccncc2)c1", "note": "(stereo not given)", "Potency": "inactive"}
{"smiles": "O=C(Nc1ccc(F)c(Cl)c1)C1Cc2c(-c3ccccc3Oc3ccccc3)ccnc2O1", "note": "(stereo not given)", "Potency": "inconclusive [inhibitor, single point]"}
{"smiles": "COc1ccc(CN2CCC(N3CC(C)OC(C)C3)CC2)c(OC)c1OC", "note": "(stereo not given)", "Potency": "inactive"}
{"smiles": "Cn1c(=O)n(-c2ccc(F)c(Cl)c2)c(=O)c2sc3ccccc3c21", "Potency": "inactive"}
{"smiles": "c1ccc(CCOn2ccnc2)cc1", "Potency": "inactive"}
{"smiles": "CCC1CCCCN1C(=O)c1ccc2c(c1)N(Cc1cccc(Cl)c1)C(=O)c1ccccc1S2(=O)=O", "note": "(stereo not given)", "Potency": "active: 16.4 µM"}
{"smiles": "O=C(CC1CCCC1)N1CCN(S(=O)(=O)c2cccc(Br)c2)CC1", "Potency": "inconclusive [inhibitor, single point]"}
{"smiles": "CCn1c(=O)c2cc(C(=O)N(C)CC(OC)OC)sc2c2ccccc21", "Potency": "inconclusive [inhibitor, partial curve, poor fit]"}
{"smiles": "COc1cccc(C(O)c2nc(-c3cccc(C(C)C)c3)cs2)c1", "note": "(stereo not given)", "Potency": "inconclusive [inhibitor, single point]"}
{"smiles": "CC1CC(C)CN(S(=O)(=O)c2ccc(C(=O)Nc3nnc(-c4cccs4)o3)cc2)C1", "note": "(stereo not given)", "Potency": "active: 5.01 µM"}
{"smiles": "CCOC(=O)N1CCC(N2C(=O)c3ccccc3C2Nc2ccccc2)CC1", "note": "(stereo not given)", "Potency": "inconclusive [inhibitor, single point]"}
{"smiles": "Cn1c(SCC(=O)N/N=C/c2cc([N+](=O)[O-])ccc2O)nnc1-c1ccccc1", "Potency": "inconclusive [inhibitor, single point]"}
{"smiles": "Cc1cc2c(c(=O)n1Cc1cccnc1)C(Cc1ccccc1)C(C#N)=C(N)O2", "note": "(stereo not given)", "Potency": "inactive"}
{"smiles": "COC(=O)c1ccc(OCC(O)CN2C(=O)c3ccccc3C2=O)cc1", "note": "(stereo not given)", "Potency": "inactive"}
{"smiles": "O=C(CCCCCCCC(=O)N1CCCC1)N1CCCC1", "Potency": "inactive"}
{"smiles": "CCCCCn1c(Sc2nc3ccccc3s2)nc2c1c(=O)[nH]c(=O)n2C", "Potency": "inconclusive [inhibitor, single point]"}
{"smiles": "COc1ccc2c(C)c(CCC(=O)NCCc3ccccc3OC)c(=O)oc2c1", "Potency": "inconclusive [inhibitor, single point]"}
{"smiles": "Cc1ccc(NC(=O)c2cccc(NC(=O)/C=C/c3ccco3)c2)cc1C", "Potency": "inconclusive [inhibitor, single point]"}
{"smiles": "O=S(=O)(c1ccc(Cl)cc1)N1CCN(Cc2cccnc2)CC1", "Potency": "inconclusive [inhibitor, single point]"}
{"smiles": "CN1CCN(C(=O)c2ccc(-c3cc4nc(NCc5cccnc5)n(C)c(=O)c4s3)cc2)CC1", "Potency": "inconclusive [inhibitor, full curve, poor fit]"}
{"smiles": "CC1=C(C(=O)OCc2ccc(C)cc2)C(c2ccc(O)c([N+](=O)[O-])c2)NC(=O)N1", "note": "(stereo not given)", "Potency": "inconclusive [inhibitor, single point]"}
{"smiles": "Cc1ccc(N2C(=O)N(CC(=O)Nc3ccccc3C(F)(F)F)C(=O)C2C)cc1", "note": "(stereo not given)", "Potency": "inactive"}
{"smiles": "COC(=O)CCSc1nc2sc3c(c2c(=O)n1Cc1ccccc1)CCC(C(C)(C)C)C3", "note": "(stereo not given)", "Potency": "inconclusive [inhibitor, single point]"}
{"smiles": "Cc1ccccc1NCc1ccc([N+](=O)[O-])s1", "Potency": "inactive"}
{"smiles": "O=C(Nc1ccc(F)cc1)Nc1nnc(Cc2ccccc2)s1", "Potency": "inconclusive [inhibitor, partial curve]"}
{"smiles": "Cc1cc(=O)n2nc(N3CCCC3C(=O)NCCCN3CC(C)CC(C)C3)sc2n1", "note": "(stereo not given)", "Potency": "inactive"}
{"smiles": "COc1cc(C(=O)NNC(=S)NCc2ccco2)cc(OC)c1OC", "Potency": "inactive"}
{"smiles": "O=[N+]([O-])c1ccccc1SNc1ccccn1", "Potency": "active: 16.4 µM"}
{"smiles": "CCc1nc2c(OCCc3cccc(OC)c3)cccn2c1N(C=O)Cc1ccc(OC)cc1", "Potency": "inconclusive [inhibitor, single point]"}
{"smiles": "CC(=O)c1cccc(NC(=O)C2(c3ccccc3)CC2(Cl)Cl)c1", "note": "(stereo not given)", "Potency": "inconclusive [inhibitor, single point]"}
{"smiles": "NC(=O)c1cc(S(=O)(=O)NCC2CCC(C(=O)Nc3cccc(Cl)c3)CC2)cs1", "note": "(stereo not given)", "Potency": "inconclusive [inhibitor, partial curve]"}
{"smiles": "CCOC(=O)c1cc(-c2ccccc2)n(CCCC(=O)Nc2ccc(CC)cc2)c1C", "Potency": "inconclusive [inhibitor, single point]"}
{"smiles": "O=C(c1ccc2c(Cl)c3c(nc2c1)CCCC3)N1CCN(c2ccccc2)CC1", "Potency": "inactive"}
{"smiles": "CN(Cc1ccccc1)C(=O)c1cccc(NC(=O)Cc2ccc(NC(=O)C3CCCN(C(=O)C4CCCC4)C3)cc2)c1", "note": "(stereo not given)", "Potency": "inconclusive [inhibitor, single point]"}
{"smiles": "COc1ccccc1NC(=O)N(Cc1ccco1)Cc1cc2c(C)ccc(C)c2[nH]c1=O", "Potency": "inactive"}
{"smiles": "Cc1ccc(C)c(N2CCN(C(=O)CCNC(=O)Cn3ccc4ccccc4c3=O)CC2)c1", "Potency": "inconclusive [inhibitor, partial curve]"}
{"smiles": "O=C(Nc1ccc2c(c1)OCO2)Nc1ccc(Cl)cc1Cl", "Potency": "inconclusive [inhibitor, partial curve]"}
{"smiles": "COc1ccc(CC(=O)N2CCCc3ccccc32)cc1", "Potency": "inconclusive [inhibitor, single point]"}
{"smiles": "C=CCn1c(Cc2cccs2)nnc1SCC(=O)c1ccc2ccccc2c1", "Potency": "inconclusive [inhibitor, single point]"}
{"smiles": "COc1ccc(CN2CCC(Oc3ccc(C(=O)NCc4ccccn4)cc3)CC2)c(F)c1", "activity change, negative = growth inhibition": "inconclusive: -31.9% [inhibitor]"}
{"smiles": "O=C(CSc1ccccc1)NCc1ccco1", "Potency": "inconclusive [inhibitor, single point]"}
{"smiles": "Cc1c2cnn(-c3ccccc3)c(=O)c2c(C)n1CCCC(=O)Nc1ccc(F)cc1F", "Potency": "active: 16.4 µM"}
{"smiles": "CCOC(=O)c1sc(=NC(=O)/C=C/c2cccs2)n(C)c1C", "Potency": "inactive"}
{"smiles": "O=[N+]([O-])c1ccc(NN=Cc2cccc3ccccc23)cc1", "Potency": "inconclusive [inhibitor, partial curve]"}
{"smiles": "Cc1c(Cl)c([N+](=O)[O-])nn1CCCC(=O)N(Cc1ccccc1)Cc1ccccc1", "Potency": "inconclusive [inhibitor, single point]"}
{"smiles": "CN(CC(=O)Nc1ccccc1C(=O)NC1CC1)Cc1ccc(Cl)s1", "Potency": "inconclusive [inhibitor, single point]"}
{"smiles": "CN1C(=O)CSc2ccc(NC(=O)N3CCN(c4ccccc4)CC3)cc21", "Potency": "inconclusive [inhibitor, single point]"}
{"smiles": "O=C(CSc1nc2ccccc2o1)Nc1nccs1", "Potency": "inactive"}
{"smiles": "COc1ccc(CN2CCC3(CC2)c2ccccc2[C@@H](NC(=O)c2ccccc2OC)[C@@H]3O)cc1O", "Potency": "inconclusive [inhibitor, single point]"}
{"smiles": "OC(CNCc1ccc(Cl)cc1)(c1ccccc1)c1ccc(F)cc1", "note": "(stereo not given)", "Potency": "active: 23.1 µM"}
{"smiles": "N#Cc1ccc(NC(=O)Cn2cnc([N+](=O)[O-])c2)cc1", "Potency": "inactive"}
{"smiles": "COc1ccc(-c2ccccc2C2=CC(=O)CC(C)(C)C2=O)cc1", "Potency": "inconclusive [inhibitor, single point]"}
{"smiles": "COc1cccc(/C=C(/C(=O)OCC(=O)NCC2CCCO2)c2ccccc2)c1", "note": "(stereo not given)", "Potency": "inconclusive [inhibitor, single point]"}
{"smiles": "O=C(c1ccc(N2CCCCC2)c([N+](=O)[O-])c1)N1CCN(S(=O)(=O)c2ccccc2)CC1", "Potency": "inconclusive [inhibitor, single point]"}
{"smiles": "COc1ccc(NC(=O)c2cc(SC)ccc2Cl)cc1", "Potency": "inconclusive [inhibitor, single point]"}
{"smiles": "Cc1cccc(C(=O)NNS(=O)(=O)c2ccc(F)cc2)c1O", "Potency": "inconclusive [inhibitor, single point]"}
{"smiles": "CCOc1ccc(OCCOc2ncnc3ccccc23)cc1", "Potency": "inconclusive [inhibitor, single point]"}
{"smiles": "CCC(C)(C)NC(=O)C1CC(=O)N(CCc2ccc(F)cc2)C1", "note": "(stereo not given)", "Potency": "inactive"}
